Laboratory results as given in EP1141005B1 (Angiogenetics Sweden AB, dated 2007).

Biological target: GAL4/HIF 71-826 (human, UniProt P04386 1-147 (Saccharomyces cerevisiae entry))
Assay: cell-based or functional assay

B1: SRC-1 (full-length transcriptional coactivator SRC-1) (other, human, UniProt Q15788 1-1441, looked up)
chain: MSGLGDSSSDPANPDSHKRKGSPCDTLASSTEKRRREQENKYLEELAELLSANISDIDSLSVKPDKCKILKKTVDQIQLMKRMEQEKSTTDDDVQKSDISSSSQGVIEKESLGPLLLEALDGFFFVVNCEGRIVFVSENVTSYLGYNQEELMNTSVYSILHVGDHAEFVKNLLPKSLVNGVPWPQEATRRNSHTFNCRMLIHPPDEPGTENQEACQRYEVMQCFTVSQPKSIQEDGEDFQSCLICIARRLPRPPAITGVESFMTKQDTTGKIISIDTSSLRAAGRTGWEDLVRKCIYAFFQPQGREPSYARQLFQEVMTRGTASSPSYRFILNDGTMLSAHTKCKLCYPQSPDMQPFIMGIHIIDREHSGLSPQDDTNSGMSIPRVNPSVNPSISPAHGVARSSTLPPSNSNMVSTRINRQQSSDLHSSSHSNSSNSQGSFGCSPGSQIVANVALNQGQASSQSSNPSLNLNNSPMEGTGISLAQFMSPRRQVTSGLATRPRMPNNSFPPNISTLSSPVGMTSSACNNNNRSYSNIPVTSLQGMNEGPNNSVGFSASSPVLRQMSSQNSPSRLNIQPAKAESKDNKEIASILNEMIQSDNSSSDGKPLDSGLLHNNDRLSDGDSKYSQTSHKLVQLLTTTAEQQLRHADIDTSCKDVLSCTGTSNSASANSSGGSCPSSHSSLTERHKILHRLLQEGSPSDITTLSVEPDKKDSASTSVSVTGQVQGNSSIKLELDASKKKESKDHQLLRYLLDKDEKDLRSTPNLSLDDVKVKVEKKEQMDPCNTNPTPMTKPTPEEIKLEAQSQFTADLDQFDQLLPTLEKAAQLPGLCETDRMDGAVTSVTIKSEILPASLQSATARPTSRLNRLPELELEAIDNQFGQPGTGDQIPWTNNTVTAINQSKSEDQCISSQLDELLCPPTTVEGRNDEKALLEQLVSFLSGKDETELAELDRALGIDKLVQGGGLDVLSERFPPQQATPPLIMEERPNLYSQPYSSPSPTANLPSPFQGMVRQKPSLGTMPVQVTPPRGAFSPGMGMQPRQTLNRPPAAPNQLRLQLQQRLQGQQQLIHQNRQAILNQFAATAPVGINMRSGMQQQITPQPPLNAQMLAQRQRELYSQQHRQRQLIQQQRAMLMRQQSFGNNLPPSSGLPVQMGNPRLPQGAPQQFPYPPNYGTNPGTPPASTSPFSQLAANPEASLANRNSMVSRGMTGNIGGQFGTGINPQMQQNVFQYPGAGMVPQGEANFAPSLSPGSSMVPMPIPPPQSSLLQQTPPASGYQSPDMKAWQQGAIGNNNVFSQAVQNQPTPAQPGVYNNMSITVSMAGGNTNVQNMNPMMAQMQMSSLQMPGMNTVCPEQINDPALRHTGLYCNQLSSTDLLKTEADGTQQVQQVQVFADVQCTVNLVGGDPYLNQPGPLGTQKPTSGPQTPQAQQKSLLQQLLTE
modifications: [35S]methionine-labeled in the pull-down of paragraph 40 (in vitro translated)
**Q.** How did the “luciferase activity, GAL4-responsive reporter, COS7, hypoxia with SRC-1 against hypoxia without exogenous coactivators” value turn out when B1 was run?
**A.** Its value is 34 fold.
